In all, about 340,000 compounds went through this assay and about 6,900 (2%) were called active. Cut-off read from the data, not from the text of the source: active = inhibition above about 30%; inactive = below that, where a call was filed. This is a selection; strong and weak results do not stand in their true shares. Entries without a call were filed so in the source.
Each molecule was assayed against D(2) dopamine receptor (Homo sapiens) (UniProt P14416) (assay: HTS Assay for Allosteric Antagonists of the Human D2 Dopamine Receptor: Primary Screen for Antagonists). Conditions: HEK293 TREx D2 cells, calcium flux, dopamine EC80; at 10 µM; stronger effect = higher value.
Source text: NIH Chemical Genomics Center [NCGC] NIH Molecular Libraries Probe Centers Network [MLPCN] MLPCN Grant: NS064831-01 Assay Submitter (PI): David Sibley Dopamine receptors (DARs) are involved in the etiology and/or therapy of a number of neuropsychiatric and endocrine disorders. For instance, all receptor-based antiparkinsonian drugs work via stimulating the D2 DAR subtype whereas all FDA-approved antipsychotic agents are antagonists of this receptor. […] There are three different types of allosteric modulators that we are seeking, two of which will stimulate or augment receptor signaling, allosteric agonists and potentiators, while the third, allosteric antagonists, will attenuate receptor signaling. The present primary screening assay measures compound antagonism after an EC80 addition of dopamine by tracking calcium flux in a […], inducible Hek293 Trex D2 cell line.
Freshly passaged cells are plated in 1536 well black, clear bottom plates at a density of 4000 cells/well in 3 ul of complete media containing 1x tetracycline inducer. After an overnight incubation at 30 C in 5% CO2, cells are loaded with 2 ul of the no wash Calcium Assay Kit (ABD Bioquest) and incubated at room temperature for 30 to 90 minutes. Agonist read: A 10 cycle (1 second/cycle) baseline measurement is taken and then the FDSS online 1536 pintool delivers 23 nl of compound library (as well as dopamine controls) to the plate. The plate is measured for kinetically at 1 cycle/sec for 180 seconds. Following the 180 second read, 1 ul of an EC80 (negative modulation assay) is delivered by an onboard pipette head. Measurements are taken kinetically for an additional 180 seconds.
Note: 0% is about no effect.

Chain of UniProt P14416 (P14416 whole entry, looked up): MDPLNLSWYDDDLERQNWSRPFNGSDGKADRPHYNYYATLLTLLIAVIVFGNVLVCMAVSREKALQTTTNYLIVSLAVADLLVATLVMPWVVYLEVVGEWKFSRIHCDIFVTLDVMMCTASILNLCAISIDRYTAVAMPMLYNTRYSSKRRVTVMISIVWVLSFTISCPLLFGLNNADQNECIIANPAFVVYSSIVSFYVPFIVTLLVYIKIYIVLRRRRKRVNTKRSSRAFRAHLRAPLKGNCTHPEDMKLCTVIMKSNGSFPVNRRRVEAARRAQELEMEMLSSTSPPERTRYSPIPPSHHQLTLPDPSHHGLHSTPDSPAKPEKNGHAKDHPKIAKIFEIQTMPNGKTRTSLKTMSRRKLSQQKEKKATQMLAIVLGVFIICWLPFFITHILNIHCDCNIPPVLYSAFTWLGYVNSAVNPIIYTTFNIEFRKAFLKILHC

Row | SMILES | inhibition
1 | CCOC(=O)c1ccc(NC(=O)C(C)Sc2nc(=O)cc(N)n2CCc2ccccc2)cc1 (centres undefined) | 6.19%
2 | COc1ccc(OCC(=O)N(Cc2sccc2C)C2CCS(=O)(=O)C2)cc1 (centres undefined) | -1.22%
3 | COc1ccc(-c2nnc(SCC(=O)N3CCc4ccccc43)o2)cc1OC | 5.44%
4 | CCN(CC)CCCNC(=O)c1cn(CC(C)C)c(=O)c2c1c1ccccc1n2C | 22.6%
5 | COc1ccccc1Nc1c2c(nc3ccc(NC(=O)c4ccccc4F)cc13)CCCC2 | 2.48%
6 | COc1ccc(OC)c(C(=O)CSc2ncc3c(n2)-c2ccccc2N(Cc2ccccc2C)S3(=O)=O)c1 | -3.96%
7 | COc1cc2[nH]c(=O)n(CCC(=O)NCCCN3CCN(c4ccccc4F)CC3)c(=O)c2cc1OC | active: 95.8%
8 | Cc1cc2c(cc1NC(=O)c1ccccc1Cl)n(C)c(=O)c(=O)n2C | -8.04%
9 | Cc1cccc(CCn2c(=O)c3ccccc3n(CC(=O)Nc3ccccc3F)c2=O)c1 | 1.06%
10 | Cc1ccc(C)c(N2CCN(CCCNC(=O)c3cnn(-c4ccccc4)c3C3CCN(C(=O)OC(C)(C)C)CC3)CC2)c1 | -9.59%
11 | CCN(Cc1ccccc1)Cc1c(O)ccc2c(=O)c(-c3ccc(Cl)cc3)c(C(F)(F)F)oc12 | -6.42%
12 | O=C(NCc1ccccc1Cl)c1c2c(nc3ccccc13)C(=O)N(C1CCCCC1)C2 | 5.41%
13 | CCCCC(=O)Nc1ccc(OCc2cc(=O)n3c(C)csc3n2)cc1 | 9.83%
14 | COC(=O)CCCCCn1c(-c2ccccc2)cn2c3c(=O)n(C)c(=O)n(C)c3nc12 | -6.36%
15 | COCCCNC(=O)c1ccc(CS(=O)(=O)c2ccccc2OC)o1 | active: 32.9%
16 | O=C(Cn1nc(-c2ccc(Cl)cc2)c2ccccc2c1=O)Nc1cccc(C(F)(F)F)c1 | -15.2%
17 | CCCCCCCCC(=O)N/N=C(\C)c1ccc(O)cc1O | active: 49%
18 | O=C(NC1CCN(Cc2ccc(Cl)c(Cl)c2)CC1)c1ccccc1 | active: 81%
19 | Cn1c(=O)c(=O)n(C)c2cc(C(=O)NCc3ccccc3Cl)ccc21 | -1.92%
20 | COC(=O)c1scc(-c2ccc(C)cc2)c1S(=O)(=O)N1CCN(c2ccc(C)cc2C)CC1 | -1.27%
21 | COc1cccc(Nc2nc3ccccc3c3nncn23)c1 | -1.16%
22 | COc1ccc(C(CNC(=O)c2oc3cc(C)c(Cl)cc3c2C)N2CCCCC2)cc1 (centres undefined) | -4.09%
23 | Cc1ccc(C(=O)NC(=S)NNC(=O)c2ccc([N+](=O)[O-])cc2)cc1 | active: 33.2%
24 | COCCNC(=O)CCc1c(C)n(C)c2cc(-c3cc(OC)c(OC)c(OC)c3)nn2c1=O | 10.6%

Row | SMILES | inhibition
25 | CC1CCN(S(=O)(=O)c2ccc3nc(NCc4ccccc4)ccc3c2)CC1 | 9.15%
26 | COc1ccc(NS(=O)(=O)c2ccc(-c3cnc(C4CC4)o3)cc2)cc1Cl | -3.67%
27 | C/C(CCc1ccc2c(c1)OCO2)=N\N=C1\NC(=O)CC(C(=O)Nc2ccccc2F)S1 (centres undefined) | active: 40.4%
28 | O=C(CCSCc1cnn(-c2ccccc2)c1-n1cccc1)NCc1ccccc1Cl | 13%
29 | Cc1ccc(Cl)cc1N1CCN(C(=O)c2ccc(CS(=O)c3ccccc3)o2)CC1 (centres undefined) | 6.51%
30 | Cc1cc(C)cc(Nc2cc(C(=O)NCCCN(C)C3CCCCC3)c3ccccc3n2)c1 | 21.6%
31 | COCCNC(=O)c1nn(-c2ccc(C)cc2)c(=O)n(C)c1=O | -20.4%
32 | CCOC(=O)C1CCN(c2ccccc2CN2CCN(c3ccccc3OCC)CC2)CC1 | active: 61.3%
33 | CCCNC(=O)CCCN1C(=O)CCn2nc(-c3cccn3C)cc21 | -4.36%
34 | CCc1ccc2oc(-c3ccc(NC(=O)c4cc5ccccc5o4)cc3)nc2c1 | 6.28%
35 | COCCCNC(=O)c1sc2nc(C)c(C(=O)Nc3ccc(C)cc3C)c(-c3ccccc3Cl)c2c1N | -2.97%
36 | CCCNC(=O)Cn1c(=O)c2cccn2c2cccnc21 | 6.86%
37 | CCCNC(=O)C1Cc2cc(S(=O)(=O)N3CCCCCC3)ccc2N1C(C)=O (centres undefined) | 9.25%
38 | COc1cc(C(=O)O)nc2ccc([N+](=O)[O-])cc12 | active: 38.4%
39 | COC(=O)c1ccc(C(=O)OC)c(NC(=O)c2cc3nc(-c4ccc(C)cc4)cc(C(F)(F)F)n3n2)c1 | -13.3%
40 | CCn1c(C(=O)NCc2ccccc2Br)cc2oc3ccccc3c21 | 7.77%
41 | CCCn1cnc2cc(NCc3ccccc3OCC)ccc21 | 6.57%
42 | O=C(Nc1cccc([N+](=O)[O-])c1)C1CC(=O)N(C2CCCCC2)C1 (centres undefined) | active: 30.6%
43 | COc1cc2[nH]c(C(=O)NCc3ccccc3)cc2c(OC)c1OC | active: 83.8%
44 | C/C=C\C(=O)Nc1cccc(C2=NOC3(C2)C[C@@H](C(N)=O)N(C(=O)C2(C)CC2)C3)c1 (some centres undefined) | active: 34.3%
45 | CC(=O)c1ccc(NC(=O)CSc2cn(CC(=O)N(C(C)C)C(C)C)c3ccccc23)cc1 | -14.3%
46 | CCCCN(CC)C(=O)CCNS(=O)(=O)c1ccc2c(c1)c(=O)n(C)c(=O)n2C | -5.49%
47 | CCS(=O)(=O)N1CCc2cc(C(=O)Nc3cccc(C(C)=O)c3)ccc21 | -14.2%
48 | CCCOc1cccc(C2c3c(-c4ccccc4O)n[nH]c3C(=O)N2Cc2ccco2)c1 (centres undefined) | -0.469%

Row | SMILES | inhibition
49 | CC(C)CCn1c(Oc2ccccc2F)nc2c1c(=O)n(C)c(=O)n2C | 3.08%
50 | Cc1cc(=O)n2[nH]c(C)c(-c3ccc(Cl)cc3)c2n1 | active: 45.6%
51 | COc1ccc(C2=NS(=O)(=O)N(C)C(C(=O)N(C)Cc3ccccc3)=C2)cc1OC | 9.22%
52 | Cc1ccccc1OCc1nc2ccccc2n1Cc1ccccc1Cl | 7.72%
53 | O=C(NCc1ccccc1Cl)c1ccc(Nc2nc3ccccc3n3nnnc23)cc1 | 21.3%
54 | Cc1ccc(OCc2nc(-c3ccc(C(=O)N4CCN(c5ccccc5)CC4)cc3)oc2C)cc1 | 11.2%
55 | CCc1ccc(C2c3c(-c4cc(C)ccc4O)n[nH]c3C(=O)N2Cc2cccnc2)cc1 (centres undefined) | -6.71%
56 | CCc1cnc2c(c1SCC(=O)N1CCC(C)CC1)c(=O)n(C)c(=O)n2C | 5.83%
57 | Cc1nn(CCC(=O)N2CCN(c3ccccc3)CC2)c(C)c1S(=O)(=O)N1CCCC1 | -26.4%
58 | Cc1c(NC(=O)Nc2ccc(F)c(Cl)c2)c(=O)n(-c2ccccc2)n1C | -6.79%
59 | CCOC(=O)c1c(S(=O)(=O)N2CCC(C(=O)Nc3ccc(OCC)cc3)CC2)c(C)n(C)c1C | -3.85%
60 | CCCCN(CCCC)CCNC(=O)c1cn(C)c2ccc(S(=O)(=O)N3CCCC3)cc2c1=O | 17.3%
61 | CCOc1ccc(OCC)c(Nc2cc(C)nc3nc(-c4ccco4)nn23)c1 | -1.37%
62 | CCOC(=O)C1=C(COC(=O)COc2ccc(Br)cc2)NC(=O)NC1C (centres undefined) | active: 82.5%
63 | CC(=O)N1c2ccc(S(=O)(=O)N3CCCCCC3)cc2CC1C(=O)NCc1ccccc1F (centres undefined) | -4.82%
64 | O=C(CSc1n[nH]c(-c2ccco2)n1)Nc1ccccc1Cl | active: 30.3%
65 | CCOc1ccc(CCNC(=O)CN2C(=O)c3cccnc3Oc3ccc(Cl)cc32)cc1 | 14.3%
66 | CCOc1ccc(CCNC(=O)Cn2nnc(-c3ccc(C(F)(F)F)cc3)n2)cc1OCC | 5.14%
67 | CC(=O)Nc1nnc(SCc2cc(=O)c3cccc(Cl)c3[nH]2)s1 | -24%
68 | Cn1cc(CCCC(=O)NCc2ccccc2Cl)c2ccccc21 | 18.1%
69 | CS(=O)(=O)N1CCCC(C(=O)NCCCN2CCC(Cc3ccccc3)CC2)C1 (centres undefined) | active: 46.3%
70 | CCOc1cc(C(=O)NCCc2csc(-c3ccc(C)cc3)n2)cc(OCC)c1OCC | 1.66%
71 | CN(C(=O)c1cc2c(=O)n3ccccc3nc2n1C)c1ccccc1 | -17.1%
72 | COc1ccc(CCNC(=O)CCn2c(=O)c3cccn3c3cccnc32)c(OC)c1OC | -0.834%

Row | SMILES | inhibition
73 | Cc1cccc(NC(=O)N2CCC(n3c(C)nc4cccnc43)CC2)c1 | -4.94%
74 | O=C(CSc1nccn1Cc1ccccc1)Nc1ccc2c(c1)OCO2 | 4.23%
75 | CCOC(=O)N1CCC(NC(=O)c2ccc3c(c2)N(Cc2cc(C)ccc2C)C(=O)c2ccccc2S3=O)CC1 (centres undefined) | 11%
76 | CN1C(=O)C2(c3ccccc31)N(c1ccc(F)c(Cl)c1)C(=O)CS2(=O)=O (centres undefined) | 7.7%
77 | Cc1cc(C)c2c(n1)nn1c(C)c(CCC(=O)NCc3ccc(Cl)cc3)c(C)nc21 | 1.57%
78 | COC(=O)c1cc(S(=O)(=O)NCC2CCN(Cc3ccccc3F)CC2)c[nH]1 | 6.6%
79 | O=C(Nc1cc(F)ccc1F)c1cc2nc(-c3ccco3)cc(C(F)(F)Cl)n2n1 | -5.81%
80 | CCOc1ccc(-c2cn3c(n2)sc2cc(C(=O)NCCc4ccc(OC)c(OC)c4)ccc23)cc1 | 10.8%
81 | CCC(=O)N1CCc2cc(S(=O)(=O)CCC(=O)N3CCN(c4ccc(C(C)=O)cc4)CC3)ccc21 | 11.3%
82 | COC(=O)c1ccc(NC(=O)c2cn(-c3ccccc3)nc2-c2ccncc2)cc1 | active: 91.4%
83 | O=C(CCn1nc(-c2ccc(Cl)cc2)c2ccccc2c1=O)Nc1ccc(OC(F)(F)F)cc1 | 14.3%
84 | O=C(Nc1ccc(F)cc1Cl)C1Cc2ccccc2N1C(=O)c1ccccc1 (centres undefined) | 8.66%
85 | CC(=O)c1cccc(NC(=O)c2nc3ccccc3nc2N2CCCCC2)c1 | 21.5%
86 | Cc1ccc(Cl)cc1N1CCN(C(=O)C2CCN(S(=O)(=O)c3ccc4c(c3)oc(=O)n4C)CC2)CC1 | -9.12%
87 | CCOC(=O)C1(Cc2ccccc2C)CCCN(C(=O)c2cc(C3CC3)[nH]n2)C1 (centres undefined) | active: 31.7%
88 | COc1ccc(OC)c(CNC(=O)C2CCN(c3ncnc4c3nc3n4CCCCC3)CC2)c1 | 4.05%
89 | COC(=O)c1c(N)n(-c2ccc(OC)c(Cl)c2)c2nc3ccccc3nc12 | -8.46%
90 | COc1ccc(-c2nnc3c4ccccc4c(-c4ccccc4)nn23)cc1 | 7.18%
91 | CCOc1ccc(CCNC(=O)c2cccc(-n3c(C)nc4cccnc43)c2)cc1 | 4.24%
92 | FC(F)(F)c1nc(-c2ccncc2)ncc1-c1nnnn1-c1ccccc1 | active: 58.4%
93 | O=C(Nc1ccccc1F)c1ccc(-c2ccccc2)s1 | 8.94%
94 | CCN(CC)C(=O)c1sc2c(c1C)c(=O)n(-c1ccc(Cl)c(Cl)c1)c(=O)n2CC(=O)Nc1cccc(OC)c1 | -10.6%
